Among the data in PMC5727935, “The distinctive cell division interactome of Neisseria gonorrhoeae” (BMC Microbiology, 2017) are binding values, retold here.

Holding throughout (assay): two-hybrid; bacterial two-hybrid (Di Lallo): fusions to P22 and 434 repressor ends in E. coli R721, 34 °C; residual β-galactosidase activity against R721 without plasmids (2504 ± 34 Miller units); less than 50% counts as a positive interaction
For test [1], the target named is T1, N. gonorrhoeae FtsW, bacterial two-hybrid fusion (Neisseria gonorrhoeae CH811) (UniProt B4RQC6).
T1 sequence: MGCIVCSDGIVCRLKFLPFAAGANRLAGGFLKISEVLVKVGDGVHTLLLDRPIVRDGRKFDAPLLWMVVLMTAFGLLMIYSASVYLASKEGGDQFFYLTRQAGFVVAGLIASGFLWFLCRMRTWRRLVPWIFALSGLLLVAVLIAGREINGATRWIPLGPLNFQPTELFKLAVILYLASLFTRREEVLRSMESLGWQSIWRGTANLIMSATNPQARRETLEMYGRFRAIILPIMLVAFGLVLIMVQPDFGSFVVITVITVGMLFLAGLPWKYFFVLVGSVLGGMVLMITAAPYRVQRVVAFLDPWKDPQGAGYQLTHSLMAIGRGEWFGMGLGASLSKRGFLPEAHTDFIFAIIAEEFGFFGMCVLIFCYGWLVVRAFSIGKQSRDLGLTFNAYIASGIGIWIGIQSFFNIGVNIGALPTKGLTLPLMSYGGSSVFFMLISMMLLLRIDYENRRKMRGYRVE

Test [2] has as its target T2, N. gonorrhoeae FtsQ, bacterial two-hybrid fusion (Neisseria gonorrhoeae CH811) (UniProt Q5F6M1).
T2 sequence: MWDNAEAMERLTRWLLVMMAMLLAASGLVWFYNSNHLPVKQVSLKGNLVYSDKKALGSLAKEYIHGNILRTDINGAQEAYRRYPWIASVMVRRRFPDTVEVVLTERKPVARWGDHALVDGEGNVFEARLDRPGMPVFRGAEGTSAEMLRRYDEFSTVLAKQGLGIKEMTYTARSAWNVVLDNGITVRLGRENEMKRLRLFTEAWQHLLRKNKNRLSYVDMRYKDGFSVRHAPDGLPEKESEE

Test [3] has as its target T3, N. gonorrhoeae FtsZ, bacterial two-hybrid fusion (Neisseria gonorrhoeae) (UniProt P72079).
T3 sequence: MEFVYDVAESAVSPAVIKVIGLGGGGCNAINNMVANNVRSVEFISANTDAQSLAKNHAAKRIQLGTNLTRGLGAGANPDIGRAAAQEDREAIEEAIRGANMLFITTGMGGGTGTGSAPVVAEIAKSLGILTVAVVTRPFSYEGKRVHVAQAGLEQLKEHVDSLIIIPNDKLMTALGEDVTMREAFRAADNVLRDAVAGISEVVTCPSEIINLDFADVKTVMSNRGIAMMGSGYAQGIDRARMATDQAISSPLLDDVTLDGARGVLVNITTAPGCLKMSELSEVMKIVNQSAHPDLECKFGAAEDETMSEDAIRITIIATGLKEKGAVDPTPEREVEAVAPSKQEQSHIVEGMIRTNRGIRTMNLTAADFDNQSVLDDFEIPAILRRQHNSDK

Test [4] has as its target T3, N. gonorrhoeae FtsZ, bacterial two-hybrid fusion (Neisseria gonorrhoeae). This is another data set of the same source.
Test [5] deals with T1, N. gonorrhoeae FtsW, bacterial two-hybrid fusion (Neisseria gonorrhoeae CH811). This is another data set of the same source.
Test [6] addresses T2, N. gonorrhoeae FtsQ, bacterial two-hybrid fusion (Neisseria gonorrhoeae CH811). This is another data set of the same source.

Like-named read-outs stand apart in the source and are kept apart here. These are yes or no findings as the source states them, for the method shown. Some binding calls cover weakened binding; strength is not graded here. Tags and fused reporters may be left off the sequences shown.

Regarding “FtsANg truncation T3 (amino acids 1-230), bacterial two-hybrid fusion (from UniProt Q5F6M2 1-230) (domain or fragment)”, the binding entry in test [1] and in test [2] was “no binding” throughout.
As for “FtsANg truncation T4 (amino acids 231-301), bacterial two-hybrid fusion (from UniProt Q5F6M2 231-301) (domain or fragment)”, in test [1], the binding entry is given as “no binding”.
Turning to “FtsANg truncation T1 (amino acids 1-162), bacterial two-hybrid fusion (from UniProt Q5F6M2 1-162) (domain or fragment)”, the binding entry in test [3] is listed as “no binding”.
As to “FtsANg truncation T2 (amino acids 1-194), bacterial two-hybrid fusion (from UniProt Q5F6M2 1-194) (domain or fragment)”, the binding entry in test [3], in test [1] and in test [2] was “no binding” in each case.

B1: N. gonorrhoeae FtsQ, bacterial two-hybrid fusion (protein, UniProt Q5F6M1 1-242)
chain: MWDNAEAMERLTRWLLVMMAMLLAASGLVWFYNSNHLPVKQVSLKGNLVYSDKKALGSLAKEYIHGNILRTDINGAQEAYRRYPWIASVMVRRRFPDTVEVVLTERKPVARWGDHALVDGEGNVFEARLDRPGMPVFRGAEGTSAEMLRRYDEFSTVLAKQGLGIKEMTYTARSAWNVVLDNGITVRLGRENEMKRLRLFTEAWQHLLRKNKNRLSYVDMRYKDGFSVRHAPDGLPEKESEE
On to B1, for which the binding entry in test [4] and in test [5] was “no binding” in each case.

B2: FtsANg truncation T3 (amino acids 1-230), bacterial two-hybrid fusion (domain or fragment, UniProt Q5F6M2 1-230)
chain: MEQQKRYISVLDIGTSKVLALIGEVQDDDKINIIGLGQAPSRGLRAGMVTNIDATVQAIRQAVNDAELMADTKITHVTTGIAGNHIRSLNSQGVVKIKDGEVTQADIDRAIETAKAINIPPDQKILDAVVQDYIIDTQLGVREPIGMSGVRLDTRVHIITGASTAVQNVQKCIELCGLKSDQIMLQPLASGQAVLTEDEKDLGVCVIDIGGGTTDIAVYMNGAIRHTSVI
Consider B2, for which the binding entry in test [4] is “binds”.

B3: FtsANg truncation T4 (amino acids 231-301), bacterial two-hybrid fusion (domain or fragment, UniProt Q5F6M2 231-301)
chain: PAGGNLITKDLSKSLRTPLDAAEYIKIHYGVASCDTEGLGEMIEVPGVGDRTSRQVSSKVLAAIISARIQE
In the case of B3, the binding result in test [4] and in test [6] was “binds” in each case.

B4: N. gonorrhoeae FtsZ, bacterial two-hybrid fusion (natural protein, Neisseria gonorrhoeae, UniProt P72079 1-392, looked up)
chain: MEFVYDVAESAVSPAVIKVIGLGGGGCNAINNMVANNVRSVEFISANTDAQSLAKNHAAKRIQLGTNLTRGLGAGANPDIGRAAAQEDREAIEEAIRGANMLFITTGMGGGTGTGSAPVVAEIAKSLGILTVAVVTRPFSYEGKRVHVAQAGLEQLKEHVDSLIIIPNDKLMTALGEDVTMREAFRAADNVLRDAVAGISEVVTCPSEIINLDFADVKTVMSNRGIAMMGSGYAQGIDRARMATDQAISSPLLDDVTLDGARGVLVNITTAPGCLKMSELSEVMKIVNQSAHPDLECKFGAAEDETMSEDAIRITIIATGLKEKGAVDPTPEREVEAVAPSKQEQSHIVEGMIRTNRGIRTMNLTAADFDNQSVLDDFEIPAILRRQHNSDK
notes: FtsZ of Neisseria gonorrhoeae; Cloned in both vectors (pcIp22 and pcI434); each fusion carries one of the two repressor ends; also called FtsZNg; pcIp22-Z; source: bacterial two-hybrid fusion, expressed in E. coli R721
As for B4, in test [4], the binding entry was “binds”.

B5: FtsANg truncation T5 (amino acids 302-414), bacterial two-hybrid fusion (domain or fragment, UniProt Q5F6M2 302-414)
chain: IFGVVLGELQKSGFPKEVLNAGIVLTGGVSMMTGIVEFAEKIFDLPVRTGAPQEMGGLSDRVRTPRFSTAIGLLHAACKLEGNLPQPENGTVQEREGGGGLLARLKRWIENNL
For B5, the binding result in test [4], in test [5] and in test [6] was “binds” throughout.
